“And” between values parts separate entries of the source, which are not always exact repeats. Equal entries are not always repeated. In all, about 110,000 compounds went through this assay and about 230 (0.21%) showed an effect of 50% or more. The list shows a part of the results.
biological target: DPAP1 (Plasmodium falciparum, UniProt Q8IIJ9); experiment: primary screen, percent inhibition; read by cleavage of a fluorogenic dipeptide substrate; higher = more effect of the substance; set-up: species or system P. falciparum D10 trophozoite lysates; single well
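Further: 30 min substrate incubation versus DMSO and 10 µM JCP410 controls.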

Sequence of DPAP1 (Q8IIJ9 whole entry, looked up): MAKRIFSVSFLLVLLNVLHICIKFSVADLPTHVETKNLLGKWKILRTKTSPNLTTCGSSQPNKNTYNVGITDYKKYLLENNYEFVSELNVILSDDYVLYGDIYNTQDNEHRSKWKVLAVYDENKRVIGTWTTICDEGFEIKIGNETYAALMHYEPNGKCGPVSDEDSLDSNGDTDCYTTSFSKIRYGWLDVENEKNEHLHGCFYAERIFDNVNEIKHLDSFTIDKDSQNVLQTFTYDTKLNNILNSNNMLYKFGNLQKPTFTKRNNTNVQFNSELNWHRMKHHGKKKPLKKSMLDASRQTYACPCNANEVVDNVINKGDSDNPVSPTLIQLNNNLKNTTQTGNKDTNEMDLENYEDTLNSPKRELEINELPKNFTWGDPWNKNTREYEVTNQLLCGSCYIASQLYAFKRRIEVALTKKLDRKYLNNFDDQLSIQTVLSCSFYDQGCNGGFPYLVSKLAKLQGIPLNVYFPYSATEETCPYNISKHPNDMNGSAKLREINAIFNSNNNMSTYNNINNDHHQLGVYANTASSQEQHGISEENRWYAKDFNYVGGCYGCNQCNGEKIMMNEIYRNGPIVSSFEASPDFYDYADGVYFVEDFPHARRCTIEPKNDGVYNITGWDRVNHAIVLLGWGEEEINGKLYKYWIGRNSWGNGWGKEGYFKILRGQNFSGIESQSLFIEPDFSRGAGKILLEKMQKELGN

Row | SMILES | % Inhibition @ 10 uM
1 | CCOc1ccc(C2Nn3c(nnc3-c3ccccc3)SC2C(=O)N(CC)CC)cc1 (stereo not shown) | 0.0289%
2 | CCOC(=O)c1cc(-c2ccc(C)cc2)n(CC(=O)NC(C)CC)c1C (stereo not shown) | 4.88%
3 | OCCNCc1ccccc1OCc1ccc(Cl)cc1Cl | -4.97%
4 | O=[N+]([O-])c1c(NCCO)cc(Cl)c2nonc12 | 5.66%
5 | NS(=O)(=O)c1ccc(CCNC(=O)C2CCCN(S(=O)(=O)N3CCCCC3)C2)cc1 (stereo not shown) | -1.38%
6 | COc1ccc(C(=O)Nc2ccncc2)c(OC)c1 | -4.24%
7 | O=S(=O)(Nc1nc2ccccc2nc1Nc1ccccc1)c1ccccc1 | -0.128%
8 | COc1cccc(-c2nnc3sc(NC(=O)OCC(C)C)nn23)c1 | -2.48%
9 | C=CCc1ccccc1OCC(O)CN1CCN(CCO)CC1 (stereo not shown) | 4.67%
10 | CCOCCCNC(=O)C(C)n1c2ccccc2c2cnn(C)c(=O)c21 (stereo not shown) | -3.79%
11 | CCN1CCCC1CNC(=O)CCc1nc(-c2ccc(OC)cc2)no1 (stereo not shown) | -0.704%
12 | CCOC(=O)C1=C(c2ccccc2)N=C(S)NC1c1ccc(Cl)cc1 (stereo not shown) | -0.357%
13 | O=C1NC(=S)NC(=O)C1=Cc1ccncc1 | -4.08%
14 | NC(=O)C12CCCC(Br)(CCC1)C2 | 6.4%
15 | NC(=O)C1CCN(C(=O)Cn2ncc3c4ccccc4n(Cc4ccccc4F)c3c2=O)CC1 | -1.58%
16 | COc1ccc(-n2c3c(c(=O)[nH]c2=O)C(NC(=O)c2ccco2)(C(F)(F)F)C(=O)N3)cc1 (stereo not shown) | 1.93%
17 | O=C(O)CNC(=O)c1ccc2c(c1)C1C=CCC1C(c1ccccc1Cl)N2 (stereo not shown) | -1.38% and 6.19%
18 | COC(=O)/C(C#N)=C/c1c(OC)ccc2ccccc12 | -3.78%
19 | O=C(CCC(=O)n1ncc2ccc(Cl)cc21)NCc1cccnc1 | 5.39%
20 | CC(C)Oc1ccc(CNC(=O)C2CCCN(S(=O)(=O)N3CCOCC3)C2)cc1 (stereo not shown) | -3.16%
21 | CC(Cc1ccc(F)cc1)N[C@H]1CCCCNC1=O (stereo partly shown) | -4.75%
22 | CCC1CCCCN1S(=O)(=O)c1ccc([N+](=O)[O-])cc1 (stereo not shown) | -2.42%
23 | COc1ccc(-c2c(C)oc3cc(O)cc(O)c3c2=O)cc1OC | 2.31%
24 | N#CC(/C=C/c1ccccc1)N1CCOCC1 (stereo not shown) | -7.25%
25 | O=S(=O)(NCC(c1ccccc1)n1cc(-c2ccccc2)nn1)c1ccc(Cl)cc1 (stereo not shown) | 6.96%

Row | SMILES | % Inhibition @ 10 uM
26 | CCCCCCc1cc(C=O)c(O)cc1O | 0.0345%
27 | CCOc1ccc(C2=C/C(=C3/N=C(C)OC3=O)c3ccccc3O2)cc1 | -3.33%
28 | Cc1cccc(C)c1OCC(O)Cn1c[n+](C)c2ccccc21 (stereo not shown) | -2.87%
29 | NC1=NC(=O)/C(=C\c2ccc3ccccc3c2)S1 | -6.67%
30 | Cc1c(Cl)cccc1NC(=O)c1ccncc1 | 1.27%
31 | C#CCn1cc(/C=C2\NC(=O)NC2=O)c2ccccc21 | -1.47%
32 | CC(C)c1ccc(/C=C(\C#N)c2nc(O)c3ccccc3n2)cc1 | -4.93%
33 | CC1CCCN(S(=O)(=O)c2ccc(F)c(C(=O)NC3CCCCCC3)c2)C1 (stereo not shown) | -0.256%
34 | O=[N+]([O-])c1ccc(Cl)cc1CN1CCCCCC1 | -4.35%
35 | COC(=O)c1ccccc1-c1ccc(/C=C2\C(=O)N(C)C(=O)C(C#N)=C2C)o1 | 3.8%
36 | COc1ccc(-c2cc(C)no2)cc1S(=O)(=O)NC1CCCCCCC1 | -6.86%
37 | COc1ccc(CCn2c(=O)c3cccnc3n(Cc3ccccc3F)c2=O)cc1OC | -1.66%
38 | CC(=O)Nc1ccc(NC(=O)c2ccc(CN3CCc4ccccc4C3)cc2)cc1 | 3.9%
39 | O=C(NC1CCN(c2ncccn2)CC1)C1CCCN(c2cnccn2)C1 (stereo not shown) | -4.71%
40 | Cc1ccc(OCC(O)CNS(=O)(=O)c2ccccc2C(=O)O)cc1 (stereo not shown) | -1.75%
41 | CCCOc1ccc(C2C3=C(O)CCCC3=Nc3nn(-c4ccccc4)c(O)c32)cc1OC (stereo not shown) | -5%
42 | CCOC(=O)C1=C(C)N(CC(C)C)C(=O)/C1=C\c1ccc(Cl)c(Cl)c1 | -1.6%
43 | CCN1CCN(Cc2cc(Br)c(OC)cc2OC)CC1 | -1.86%
44 | COc1ccccc1/C=C/c1[nH]c(=O)[nH]c(=O)c1[N+](=O)[O-] | -3.35%
45 | O=C(NCCc1ccsc1)c1ccc2c(Cl)c3c(nc2c1)CCCC3 | -5.58%
46 | CC(C)CCOc1ccc(OCC(=O)Nc2nc3ccccc3[nH]2)cc1 | 0.389%
47 | CC(=O)Nc1ccc(NC(=O)CCc2ccc(S(=O)(=O)NC3CCCCC3)cc2)cc1 | 1.84%
48 | O=C(c1c(F)cccc1F)N1CCN(c2ccccc2F)CC1 | 7.55%
49 | COc1ccc(CC(=O)Nc2ccc(OC)cc2)cc1 | -1.17%
50 | CC(C)(C)NC(=O)COc1ccc(CNC23CC4CC(CC(C4)C2)C3)cc1 | -9.53%

Row | SMILES | % Inhibition @ 10 uM
51 | COc1ccc(C2NC(S)=NC3=C2CCc2cc(OC)ccc23)cc1 (stereo not shown) | 8.53%
52 | O=C(/C=C\c1ccccc1)Nc1c(-c2cccs2)nc2ccccn12 | -4.23%
53 | O=C(O)COc1ccccc1/C=C1/SC(=O)N(CC(=O)N2CCc3ccccc3C2)C1=O | 8.56%
54 | N#Cc1c(NC(=S)NC(=O)/C=C/c2ccccc2)sc2c1CCCC2 | -3.98%
55 | CCSc1ncc(Cl)c(C(=O)NCCc2ccc(S(N)(=O)=O)cc2)n1 | -2.85%
56 | CC(C)c1ccc(OCc2ccc(C(=O)NCc3ccco3)o2)cc1 | 6.82%
57 | CC(=O)NC(=O)CC(=O)c1ccccc1 | 0.986%
58 | O=C(NCCC1=CCCCC1)c1cc(-c2ccccc2)[nH]n1 | 0.00226%
59 | O=C(O)c1ccc2[nH]c(-c3cc4cc(Br)ccc4oc3=O)nc2c1 | -0.617%
60 | CCOC(=O)N1CCC2(CC1)C(C#N)=C(N)Oc1c2sc2nc(C)cc(C)c12 | 0.726%
61 | CCCCn1c(=O)c(C#N)cc2c(=O)n3cc(C)ccc3nc21 | 1.12%
62 | Cc1cc2oc(C(=O)N(Cc3sccc3C)C3CCS(=O)(=O)C3)c(C)c2cc1Cl (stereo not shown) | 5.29%
63 | Cc1nn(CC(=O)NCCCN2CCC(Cc3ccccc3)CC2)c(=O)c2cccn12 | -5.78%
64 | COCC(=O)n1nc(-c2ccccc2)nc1NCc1ccccc1 | 2.31%
65 | COc1ccc(CC(=O)N2CCN(c3ccccc3)CC2)cc1 | 0.135%
66 | COc1ccc(-c2c(C)nn3c(NCCCc4ccccc4)cc(C)nc23)cc1OC | 1.55%
67 | Cc1ccc(NS(=O)(=O)c2cc(C(=O)O)ccc2C)cc1 | 2.43%
68 | c1ccc(OCCn2c(C3CCCO3)nc3ccccc32)cc1 (stereo not shown) | -2.99%
69 | Cc1cccc(C)c1N(CC(=O)N1CCCCCC1)S(C)(=O)=O | -4.59%
70 | Cc1ccccc1-n1nc2c(c1NC(=O)C(C)(C)C)CS(=O)(=O)C2 | -3.83%
71 | CC(=O)c1cc2c(cc1NC(=O)c1ccc(Oc3ccccc3)cc1)OCO2 | -6.66%
72 | COc1ccccc1N1CCN(C/C(Cl)=C/c2ccccc2)CC1 | 0.472%
73 | Cc1oc(-c2ccccc2F)nc1CS(=O)(=O)CC(=O)NCc1ccco1 | -3.7%
74 | CCCCN(C)Cc1c(C)nc2ccc(OCC)cc2c1O | 5.37%
75 | Cc1ccc(C(=O)Nc2c(C(=O)N3CCCCC3)cnn2-c2ccccc2)cc1 | 2.17%

Row | SMILES | % Inhibition @ 10 uM
76 | Cn1c(=O)[nH]c(=O)c2[nH]c(N3CCCCC3)nc21 | 0.635%
77 | CCCc1ccc(OCC(=O)Nc2cccc(Cl)c2C)cc1 | -9.84%
78 | Cc1sc(NC(=O)COc2ccccc2)c(C(N)=O)c1-c1ccc(C(C)(C)C)cc1 | 11%
79 | N#CC1=C(N)Oc2c(c(=O)oc3ccccc23)C12C(=O)Nc1ccccc12 (stereo not shown) | -5.62%
80 | CC(=O)OCC12COCC(C(C)=CC1C)C2C (stereo not shown) | -1.86%
81 | Sc1nnc(Cc2ccccc2)n1-c1ccccc1 | 10.4%
82 | COCCCNC(=O)C(=O)NCc1ccncc1 | -1.6%
83 | CCOC(=O)c1c(NC(=O)C2CCCN2S(=O)(=O)c2cccc3nsnc23)sc(C)c1C (stereo not shown) | -4.24%
84 | O=C(/C=C1\NCCN\C1=C/C(=O)c1ccc(Cl)cc1)c1ccc(Cl)cc1 | 4.75%
85 | OC(COc1ccc2ccccc2c1Br)Cn1cnc2ccccc21 (stereo not shown) | 0.685%
86 | CCOc1ccc(S(=O)(=O)N2CCC(C)CC2)c2ccccc12 | -3.6%
87 | Cc1ccc(S(=O)(=O)N(CC(=O)NCc2ccco2)c2ccc(C)cc2C)cc1 | 2.37%
88 | COc1ccc(Br)cc1C1CC(=O)Nc2c1c(=O)nc(SC)n2C (stereo not shown) | -3.1%
89 | COc1ccc2c(CNCCCc3ccccc3)c(C(=O)O)n(C)c2c1 | 2.33%
90 | Cc1oc(-c2cccs2)nc1CS(=O)CC(=O)NCc1ccc(F)cc1 (stereo not shown) | -5.58%
91 | CCOc1cc(C2c3c(-c4ccccc4O)n[nH]c3C(=O)N2CCOC)ccc1O (stereo not shown) | -4.95%
92 | CN(C)CCCNCc1cccn1C | 1.72%
93 | CCNc1c(NS(=O)(=O)c2ccc3c(C)c(C(=O)OCC)oc3c2)c(=O)oc2ccccc12 | -2.23%
94 | CCCCOc1ccc(C(=O)Nc2c3c(nn2-c2ccccc2C)CS(=O)(=O)C3)cc1 | -0.657%
95 | CC(C)(C)c1ccc(C2=N/C(=C\c3ccc(F)cc3)C(=O)O2)cc1 | 0.434%
96 | C=CCOc1ccc(C2C3=C(CCCC3=O)N(CCC(=O)O)C3=C2C(=O)CCC3)cc1OC | -0.984%
97 | CCOC(=O)N1CCN(C2C3CC4CC(C3)CC2C4)CC1 (stereo not shown) | -4.75%
98 | CC1CCc2nn(CC(=O)N3CCC4(CC3)OCCO4)cc2C1 (stereo not shown) | 4.95%
99 | O=C(O)c1ccccc1C(c1ccc(O)cc1)c1ccc(O)cc1 | -3.41%
100 | O=C(CCC(=O)N1Cc2ccccc2Oc2ncccc21)NCC1CCCO1 (stereo not shown) | -2.09%

Source: paper PMC6919601, “Identification of Plasmodium dipeptidyl aminopeptidase allosteric inhibitors by high throughput screening” (PLoS ONE, 2019)
